# Measurements taken from article PMC12136788.
# The list shows a part of the results.
# B1: chr10:88199856:88199857:+_ENSMUSG00000060904_ENSMUST00000116234|mus_hu|motif|central (ssRNA)
# RNA: GGGAGUUCUACAGUCCGACGAUCUGCAUCUGUGUUUGAAUAGUAACAUCUCCAGUAUGGCCUGAUACUUGUCUGUCCUCCGGAAUCCCAGACUUGGAAUUUAAGGUUUUUGUACGUCACCGUCUCUACAUUAAAUCCAAUGGUCAACAGAGGAUUGAGCAUCA
# B2: chr2:5814250:5814251:-_ENSMUSG00000025816_ENSMUST00000102981|mus_hu|mus_mus_mus_hu_True|18_38 (ssRNA)
# RNA: GGGAGUUCUACAGUCCGACGAUCUUCCUUUCCGGUUUCUGAAUUUCUGGUAGAACUGCACAGAAUGGUUUGAUAACUUCUAAAAAUUUGAUGCCCAUGGCGGCGGCUGGGGAGGCCCGGCGGGCACCCGCGGCCUCGGCGCUGCAACAGAGGAUUGAGCAUCA
# B3: chr11:22646265:22646266:-_ENSG00000183161_ENST00000327470|hu_hu|FALSE|FALSE (ssRNA)
# RNA: GGGAGUUCUACAGUCCGACGAUCCAGCAUUGCCUAUACAGAACUGAGGCCUGCGCUGAGACCCAAAACUUGUCUUUUCCUAAAUGCACCACUACGAAGAGCUAAUAAGAGGUCUGUCCAGAUGCUAAGACCAGGUACUUCAAACAACAGAGGAUUGAGCAUCA
# B4: chr16:45382771:45382772:-_ENSMUSG00000022661_ENSMUST00000163230|mus_mus|mus_mus_mus_hu_True|48_88 (ssRNA)
# RNA: GGGAGUUCUACAGUCCGACGAUCCUGGGUCAUGUUAUAAGACAAAUGGAUAGGGAGGGCAUGCUUCUCAAAAAAUGUGAGCUAUUGACUAAGACUAACAAUAUUUAUCUAGCUAUAAAAAUAAGUUAAAUGAAUAAGUUAAGACAACAGAGGAUUGAGCAUCA
# B5: chr4:124533079:124533080:-_ENSMUSG00000042763_ENSMUST00000064444|mus_mus|FALSE|FALSE (ssRNA)
# RNA: GGGAGUUCUACAGUCCGACGAUCUCCACUGUGCUAAAGCUAGCCAGCCUAGCCAUACACUGAUGUGUCCCAGACUGACCUAGUGGUCAGCACUUAGGAGAACUGGAAGAGGAAUGUGUACUGGCAUACACCAUUUCAUACUUACAACAGAGGAUUGAGCAUCA
# B6: chr10:33190432:33190433:-_ENSG00000150093_ENST00000302278|hu_mus|hu_hu_hu_mus_True|58_108 (ssRNA)
# RNA: GGGAGUUCUACAGUCCGACGAUCUACAUUUUCAAAACCUGCAUGUGAAUAAAACCCUGGCCACAGAGCCCCAAAACUACCUAACUGUGACUAAGAUGCUGCUGCUGUGAGCUUGGUGUUGCAAAAUCCGCCUGAGUAGGAUUCCAACAGAGGAUUGAGCAUCA
# B7: 44151637_44155220_1000_CDS_ENSMUSG00000035696_ENSMUST00000045793|mouse|control|control (ssRNA)
# RNA: GGGAGUUCUACAGUCCGACGAUCAGUAAAACUGCCUACUUGAAGAUGUUCUCCUAAGAGCUCCACUUCAUUUUCUAUCCUCUGCAGAGGCGAUCGUGACUGCUGUGUUUGGAAAGGGACAAAUUGGCCUGGUGGUGGCAAGUGCAACAGAGGAUUGAGCAUCA
# B8: chr1:109605286:109605287:-_ENSG00000197780_ENST00000461096|hu_mus|hu_hu_hu_mus_True|28_78 (ssRNA)
# RNA: GGGAGUUCUACAGUCCGACGAUCAAGUUUCAGAGUAACAUUCAGUAACCUCUUUAACAAUUGUAAUCCUUAUUAUAAGCUAAGCAGAAUAAUAAUUUAAUACCGUAAGUAAAUACAACACAAAGCCUGAACCGCGAAAAUGGUCAACAGAGGAUUGAGCAUCA
# B9: chr2:24222969:24222970:+_ENSG00000173960_ENST00000309033|hu_hu|FALSE|FALSE (ssRNA)
# RNA: GGGAGUUCUACAGUCCGACGAUCAUUCUAAACAAUACAGCUAUUUAAUAUAUCUUGAUAACUGGUAUUUGAAAAUAAGUCUAUUUUUCUGGGUAGUCUUUUGGAGAAAGUGCACUGAAUAUAGUUUCCAGUCAUAUGCUACUUCAACAGAGGAUUGAGCAUCA
# B10: 35030014_35030134_388_CDS_ENSMUSG00000038784_ENSMUST00000114993|mouse|control|control (ssRNA)
# RNA: GGGAGUUCUACAGUCCGACGAUCAAAUCGGCAUAUCUGGUAGCCACAGGUGCAAGGGAAAAAGUUAAUAUCAUCUAUUUCCAAGGGCUCCAUGCAAAGAGGGCAUUCCACAGGGUCUUCCUUUGCAUCAGGACUGCGAGACAUCAACAGAGGAUUGAGCAUCA
# B11: 120000320_120000440_688_CDS_ENSMUSG00000061306_ENSMUST00000103018|mouse|control|control (ssRNA)
# RNA: GGGAGUUCUACAGUCCGACGAUCGAAGAGGAGCGCCAUGGCACUGAAGGACUGGAUAGAGGCCAUCAUGUUUCUCUGCAGGCUGAGCGGGAGCACAAUGAACAGGGACACUGCGAAGAGCAGGAACACACGGACAGUCCUGGUCAACAGAGGAUUGAGCAUCA
# B12: chr5:116097646:116097647:+_ENSMUSG00000029518_ENSMUST00000031492|mus_hu|FALSE|FALSE (ssRNA)
# RNA: GGGAGUUCUACAGUCCGACGAUCAAAAGCAUAAUUAGAAACUUUCAAUACAGAAAUACUCCUAGCAAACCAUUGAAAAGUGGUGUUUGUUUGACAGGAAUUUCACAUCAGGUCCACUAGGACGUCGGUCCAGCCCUGAGUCCCCAACAGAGGAUUGAGCAUCA
# B13: chr1:120316058:120316059:+_ENSMUSG00000064302_ENSMUST00000049404|mus_hu|FALSE|FALSE (ssRNA)
# RNA: GGGAGUUCUACAGUCCGACGAUCCACCAUGUGUGUCUGAAGAGCAGCUGGUAGGAUAUUAAAAGUCCAAUUUAAAUAACUAGUAGGAGAUAAAGGAGUGAGUGGCAGAGUGAUGUUCUACUACUGGGUCUGAAAUACUUCAUACAACAGAGGAUUGAGCAUCA
# B14: chr9:107926503:107926504:+_ENSMUSG00000032594_ENSMUST00000035214|mus_mus|FALSE|FALSE (ssRNA)
# RNA: GGGAGUUCUACAGUCCGACGAUCGGGGGCCGGUUGCACACUGAUGGCAGACGAUGCAGCACAUGGACCACAAAAGGAGAGCUAAGUUGAUCCUGGCUAGUGGGAGGCCAAUGGUCACAGUCUGCUUAGUUUACUGUUCUGUCCCAACAGAGGAUUGAGCAUCA
# B15: chr4:47850210:47850211:-_ENSG00000170448_ENST00000381538|hu_hu|FALSE|FALSE (ssRNA)
# RNA: GGGAGUUCUACAGUCCGACGAUCUACAUUAAAAGAUCAAAACUUUUUUUAAUUGACAUCAUGGGUGAUGUACCAGGCAAACACUACAACCACAACUCCACACACUGAAAUGAGAUAAUAUUUAUGUUUUUGCCAUAGUGAUAGCAACAGAGGAUUGAGCAUCA
# B16: chr2:202488911:202488912:-_ENSG00000155755_ENST00000286196|hu_mus|hu_hu_hu_mus_False|8_58 (ssRNA)
# RNA: GGGAGUUCUACAGUCCGACGAUCAUUGAAACAUUUUUCAUAAUCUCCAGUAGCAUUUCAGCAUUAUGUAACAAAAGAUCUAUUACAAAUACAUGUAUCUUAUAAAAAUACACUUAAAAACACGAGUAAAAAUGGGAGGCGCCACAACAGAGGAUUGAGCAUCA
# B17: chr1:60041781:60041782:+_ENSMUSG00000041040_ENSMUST00000036540|mus_hu|mus_mus_mus_hu_False|38_108 (ssRNA)
# RNA: GGGAGUUCUACAGUCCGACGAUCAAGAGGAGUGAAUUAAAGUAAAUGCAGUAGUGGCAAAUUUUCUUUUAUUUUCCUUCACAAAAGAAAAUCUUUAGAUCUCAGUUCUAGUCUUGGACAUAGUGAAAGCUAUAAAUUCUGACUCAACAGAGGAUUGAGCAUCA
# B18: 93489317_93489437_2376_CDS_ENSG00000173575_ENST00000394196|human|control|control (ssRNA)
# RNA: GGGAGUUCUACAGUCCGACGAUCUCUUGUUGGGAUGGUUUUUGAGUUGUUCCUACUGUGGAAGCUGUCAAUGCAAUUCUGGAAUUUCUUUCCAAUGAGGGCUUCAUCUUCCCAGCUACACUCUGAAUAGGGGAGUCCCAUCCACAACAGAGGAUUGAGCAUCA
# B19: 83748629_83748749_3059_CDS_ENSG00000138674_ENST00000348405|human|control|control (ssRNA)
# RNA: GGGAGUUCUACAGUCCGACGAUCCUGGCCACCUGGAAGAUGUGGCUGUGGGAAUGAAGACUGGCUUGACAGUGGUACUGGAGCUGAAGGCUGUUGCUGCAGCAUUUGUGACUGGGGGUCACCCAACGGGUUCAUGAUUGGUGACAACAGAGGAUUGAGCAUCA
# B20: 69601168_69614239_201_CDS_ENSG00000198380_ENST00000361060|human|control|control (ssRNA)
# RNA: GGGAGUUCUACAGUCCGACGAUCCUGAAGGCCUUUGAUUAGGGUCUCCAGGAUUUCUCGUCUCGUUCGAGGAACAUGGUAGUUUAAGUAAGCAAAUAUACCACACAUGAUGCCGGAGACACGGCCCGCGAGGCCAGGGGCGAGCAACAGAGGAUUGAGCAUCA
# B21: 215781420_215785192_1725_CDS_ENSG00000136636_ENST00000259154|human|control|control (ssRNA)
# RNA: GGGAGUUCUACAGUCCGACGAUCUUGAUCGUCUCGCUCUCCAAAAGGUCCUAUGUCAUUUCCAGAGGAAUAGCUACCAUGACUUUCUGUCUCCUCCAGGGAUAGUAUCUUGAAUGACGCUAAAGGAGUAGAACCUGGCUGAGUCAACAGAGGAUUGAGCAUCA
# B22: chr7:141441981:141441982:+_ENSG00000106028_ENST00000265304|hu_mus|hu_hu_hu_mus_False|8_28 (ssRNA)
# RNA: GGGAGUUCUACAGUCCGACGAUCCUCAUGUCUUACAAACUGACGAAAUACCUGUAACACAGGUCUUCGAAACAUGGCUUCUGUUUUUCUUACAACCUAAUCUUUAGUUAGGCUUUUAAGGAAAGAAUAACCCGAGCAAAAUGACAACAGAGGAUUGAGCAUCA
# Target: T1, UNK ZnF1-3 (human, UniProt Q9C0B0 31-174)
# T1 sequence: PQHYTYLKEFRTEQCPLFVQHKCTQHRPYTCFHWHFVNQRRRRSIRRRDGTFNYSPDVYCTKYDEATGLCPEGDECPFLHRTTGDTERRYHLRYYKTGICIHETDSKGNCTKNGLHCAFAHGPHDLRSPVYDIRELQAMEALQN
# Experiment: nsRBNS (natural sequence RNA bind-n-seq); RBNS binding buffer (assumed for nsRBNS): 25 mM Tris pH 7.5, 150 mM KCl, 3 mM MgCl2, 0.01% Triton X-100, 500 ug/ml BSA, 20 U/ml SUPERase-In, 4 C; UNK is unkempt and MSI1 is Musashi-1; names of the RNAs are library labels; protein concentration not given here; high values mean tight binding
row,Binder,binding signal [enrichment R]
1,B1,1.08
2,B2,0.82
3,B3,1.35
4,B4,2.26
5,B5,0.545
6,B6,1.36
7,B7,1.32
8,B8,1.03
9,B9,1.06
10,B10,0.893
11,B11,1.75
12,B12,1.02
13,B13,2.12
14,B14,1.65
15,B15,1.41
16,B16,1.34
17,B17,0.519
18,B18,0.728
19,B19,1.25
20,B20,0.865
21,B21,0.925
22,B22,0.626
